# From the supplement of paper PMC3334620
# Whole data set: some 33,000 sequences, median “E-score (-0.5 to 0.5)” near -0.011, cut for the highest 2% near 0.28. The list shows a part of the results.
# Target: T1, Gcr1 (UniProt P07261)
# T1 sequence: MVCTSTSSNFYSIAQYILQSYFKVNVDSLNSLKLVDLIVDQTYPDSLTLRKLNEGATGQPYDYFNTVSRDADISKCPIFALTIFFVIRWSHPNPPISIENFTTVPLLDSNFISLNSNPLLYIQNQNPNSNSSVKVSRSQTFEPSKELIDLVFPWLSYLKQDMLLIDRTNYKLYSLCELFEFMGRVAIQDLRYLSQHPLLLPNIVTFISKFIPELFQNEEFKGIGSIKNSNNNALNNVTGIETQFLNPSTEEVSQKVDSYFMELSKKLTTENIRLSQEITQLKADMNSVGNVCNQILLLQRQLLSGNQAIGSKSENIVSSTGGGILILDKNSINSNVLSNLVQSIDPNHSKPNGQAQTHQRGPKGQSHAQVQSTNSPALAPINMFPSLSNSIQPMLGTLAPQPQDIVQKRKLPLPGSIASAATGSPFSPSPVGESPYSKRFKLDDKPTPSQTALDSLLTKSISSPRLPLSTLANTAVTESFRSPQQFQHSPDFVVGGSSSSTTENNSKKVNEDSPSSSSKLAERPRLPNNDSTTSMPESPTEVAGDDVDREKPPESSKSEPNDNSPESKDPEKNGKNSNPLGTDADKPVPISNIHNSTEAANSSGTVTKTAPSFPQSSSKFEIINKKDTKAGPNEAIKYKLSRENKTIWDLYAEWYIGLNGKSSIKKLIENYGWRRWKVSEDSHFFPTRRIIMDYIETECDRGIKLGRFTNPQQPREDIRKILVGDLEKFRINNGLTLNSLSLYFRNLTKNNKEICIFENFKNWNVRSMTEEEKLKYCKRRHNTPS
# Assay: PBM E-score (8-mer binding enrichment) (E-score (-0.5 to 0.5)); higher = stronger / more preferred TF binding; most listed sequences are background and not binding sites
# Conditions: protein concentration: 100 nM; construct: GST-full length
# Method in brief: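 GST-tagged yeast TFs (full-length or DNA-binding domain) were made by PURExpress in vitro transcription/translation and applied at about 100-200 nM to universal all-10-mer Agilent arrays. The arrays were made double-stranded by primer extension, on fresh or once-stripped slides. Bound protein was detected with fluorescent anti-GST, and scans were normalised with masliner. Each ungapped eight-base word, pooled with its reverse complement, received an E-score (modified Wilcoxon-Mann-Whitney statistic) from the Universal PBM Analysis Suite.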
row,Sequence,PBM E-score
1,GCGAATAA,-0.0656
2,AGACCGAG,-0.0928
3,AAGTCCAG,0.03
4,CCAGGGCC,-0.0915
5,GGAATGGA,-0.103
6,CGGGACGA,-0.213
7,ACTTAAGC,-0.132
8,AAAAAGAG,0.162
9,CCGCGACG,-0.141
10,ACATGGCG,-0.158
11,AAGTTAAA,0.148
12,ATAGGTAG,0.267
13,CTTCTGAA,0.147
14,ACGGGCTA,0.0471
15,GCTTGCAA,-0.242
16,TAATCTCA,-0.0789
17,CACTCGAC,-0.0291
18,AGCCCACA,-0.0506
19,ACATGGAC,-0.061
20,ATGCACCC,-0.0509
21,GGACAAAA,-0.0366
22,CGGCATTC,-0.173
23,GGGGTATA,-0.187
24,TCATTTCA,-0.0344
25,CAAATGTC,-0.137

row,Sequence,PBM E-score
1,CTGAGAAC,0.0345
2,ATTGGCGC,0.107
3,CTGGGAAG,0.0187
4,AAAGGGCC,-0.144
5,ATGTAAAC,-0.0452
6,ACTCCCGC,0.113
7,ACACGCCA,-0.163
8,CGGATCTA,0.0614
9,CTCTTACA,0.00789
10,CGGAGCAA,-0.251
11,ATCATCAT,-0.0878
12,GAATAGGA,0.1
13,CATCAAAA,0.101
14,ACAGATAT,-0.00642
15,AAACTAAG,0.12
16,ACGTTTCG,-0.204
17,AAAGGACT,-0.149
18,GCCCGCAA,0.0623
19,GTTCGCCA,-0.16
20,CGTCACCA,0.0162
21,AAACCTGC,0.0948
22,CCCCGACC,-0.117
23,AATAATGC,0.00639
24,CGGCAACA,0.206
25,GGGTGTCA,-0.0813

row,Sequence,PBM E-score
1,TACGCCTA,0.062
2,AGAGTTTG,0.00252
3,AGCTGTCC,-0.103
4,ACTAAAAC,0.103
5,TACGAAAA,0.112
6,TAGAGCGA,-0.0317
7,CAATGATG,-0.0198
8,CCCGGTGA,0.121
9,ACGTAACC,-0.0202
10,GGACATTA,0.0667
11,GGATGGTA,-0.0195
12,AGCCCAAC,0.0796
13,CGTCGCAG,0.0557
14,ATCGACTC,-0.171
15,AGTCATCA,-0.152
16,AACGCATT,-0.0176
17,GGAGATAC,-0.0448
18,CGTGACAA,0.0429
19,CTTCCCGA,0.0389
20,ATCTTGAG,0.0742
21,GGGACGAA,0.112
22,CAGGGCGA,-0.176
23,CATCTTGA,0.105
24,ACTGACCG,-0.231
25,ATGGCCCA,-0.203

row,Sequence,PBM E-score
1,TAAAAGTA,0.0173
2,AATCAAGA,0.042
3,CCCCTCCC,-0.031
4,GCATGCGA,-0.03
5,GCCGTGAC,-0.123
6,GGTTCTGA,0.0841
7,CGTTACGA,0.00915
8,ATGATTAG,-0.101
9,ATAGGACG,0.114
10,AGCCACCT,0.0295
11,GGCTACCA,0.17
12,GATTTCAA,-0.039
13,TGATAAAA,-0.00242
14,CCAGCGAA,-0.0416
15,CAGGTGAA,0.0398
16,CAGATCCA,0.185
17,GCCGCCTA,0.204
18,AGTTATCG,0.0927
19,CGTGGGGC,0.00219
20,AAGCTAAT,-0.00162
21,ACCAACAT,0.0288
22,CTGTGTAC,-0.0302
23,CTATCGAG,-0.167
24,CCGTACTC,0.0417
25,GGTCACCA,-0.00517

row,Sequence,PBM E-score
1,AAATAGTA,0.0682
2,ACTGTCTG,-0.0381
3,GTCAACAA,-0.00849
4,AGCCAGCC,-0.0691
5,CCAAAACC,0.0659
6,GCCTGCCA,-0.0255
7,CATGTACC,0.194
8,AGGCTAAT,-0.0275
9,CACGCTTA,-0.17
10,AATGCTGT,-0.115
11,CCCGAAAA,0.162
12,AGTGTGCC,-0.0804
13,CGGGGGTA,-0.0719
14,GGCAGTAA,-0.0223
15,GCAGCACA,-0.114
16,ACCCGGAG,0.0468
17,GCCGACAC,0.018
18,GAGGATTA,-0.13
19,GAACTTGC,0.0507
20,CTTCGATA,0.0457
21,ACTGTAAA,0.0981
22,AAACCAAA,0.066
23,ATGGGTAG,-0.0578
24,CATAAGAC,-0.123
25,TGACCGAA,-0.00849

row,Sequence,PBM E-score
1,ACTCAGCC,-0.0985
2,CCGTGCTA,0.0646
3,ATACGTAG,0.0454
4,GTTCTGCA,-0.0135
5,GAGCATAA,0.0398
6,AAATTTAA,0.15
7,AATTTCTG,0.182
8,ATGCTACG,0.0159
9,AAACGTAC,-0.07
10,CCCAGTCG,-0.078
11,TCTCGTAA,0.114
12,GTATTCAC,-0.0109
13,TGCTCCAA,-0.0556
14,ATCACAGG,0.0448
15,ACATGAAC,-0.0493
16,CAAGCGCA,-0.128
17,CTTCTGAC,-0.158
18,ACGAGCTG,-0.0505
19,CCATAGGC,-0.00913
20,CAGGCTGA,-0.143
21,GAATGCTC,-0.194
22,CGCCTCTC,0.0744
23,TAAAGACA,-0.255
24,CCACCAAC,-0.0849
25,ATGAATGC,0.0536

row,Sequence,PBM E-score
1,TCGCTACA,0.0704
2,ACCGGCGT,0.0406
3,ATGACAAT,-0.14
4,CTCATAAC,0.0143
5,AGACCTCT,-0.26
6,ACGCCTTC,0.134
7,ATAGGTAA,-0.0707
8,CACGAATG,0.0475
9,CTTGAGAC,-0.19
10,CATGACCG,-0.0661
11,CGCAAAAC,0.0377
12,ACTGCACT,-0.285
13,CGAATCGC,-0.147
14,AGGGTGAT,-0.0437
15,CTCACCGC,-0.0683
16,GCACCCGC,0.271
17,AGTTAATA,0.103
18,AGACAGCT,-0.133
19,ATAGGTCG,0.0752
20,ACACAAGG,-0.0735
21,GGGAAGAA,-0.14
22,CATTATTC,-0.0198
